Measured values reported in PubChem BioAssay AID1346428 (National Center for Advancing Translational Sciences (NCATS), 2018).
In all, about 48,000 compounds went through this assay and about 1,200 (2.5%) were called active. Inconclusive means that the source gave no clear call. Such entries were picked first, then a sample of the others.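 Rule for the calls: active = activation of at least 60% and not above a set upper limit (about 1 call in 100 departs from these limits); inconclusive = activation of 40% to 60%, or above that upper limit; inactive = activation under 40%.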 The source holds several records for some structures; these can differ, active in one and inactive in another.

These compounds were tested against Probable G-protein coupled receptor 32 (Homo sapiens) (UniProt O75388) (assay: qHTS for Agonists of Human Resolvin D1 Receptor DRV1). Settings: CHO-K1 GPR32 beta-arrestin PathHunter luminescence, 90 min; at 76.9 µM; active compounds read high; zero percent set by DMSO-only wells.
Sequence of UniProt O75388 (O75388 whole entry, looked up): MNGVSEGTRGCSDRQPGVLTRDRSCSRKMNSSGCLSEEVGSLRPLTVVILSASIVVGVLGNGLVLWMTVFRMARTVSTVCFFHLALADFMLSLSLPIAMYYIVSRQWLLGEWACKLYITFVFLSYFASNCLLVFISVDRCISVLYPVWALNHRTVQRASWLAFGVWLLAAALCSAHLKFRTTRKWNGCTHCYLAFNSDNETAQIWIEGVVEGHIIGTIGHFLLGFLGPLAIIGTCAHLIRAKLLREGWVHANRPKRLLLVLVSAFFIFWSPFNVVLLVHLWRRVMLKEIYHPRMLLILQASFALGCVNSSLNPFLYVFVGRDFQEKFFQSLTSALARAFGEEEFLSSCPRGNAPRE
In short: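 Cells are plated overnight, treated with compounds in DMSO for 90 minutes at 37 °C, and developed with PathHunter detection reagent for 1 hour before luminescence is read; signal reflects beta-arrestin binding to GPR32 in engineered CHO-K1 cells.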
Note: 0% is about no effect.

activation, active:
COc1ccc(Nc2c3c(nc4ccc(NC(=O)c5cc(Cl)ccc5OC)cc24)CCCC3)cc1OC 60.5%, CC(CN1c2ccccc2Sc2ccccc21)N(C)C (stereo unspecified) 108%

activation, inactive:
COc1ccc(-c2nc(CCNC(=O)c3c(F)cccc3Cl)cs2)cc1 13.9%, CCOc1ccc(CNC(=O)Cn2nc(N3CCN(c4ccccc4)CC3)ccc2=O)cc1 36.4%, COc1ccccc1CNc1ncnc2c1nc1n2CCCC1 16.2%, Cc1ccccc1OCC(=O)Nc1ccc(OCc2cc(=O)n3ccsc3n2)cc1 -0.758%, COc1cccc(CNC(=O)c2ccc(-c3nc(CS(=O)(=O)c4ccccc4)c(C)o3)cc2)c1 -7.87%, Cc1ccc(Cl)cc1N1CCN(C(=O)c2cccn2-c2nnc(N3CCCC3)s2)CC1 1.87%, CC1Cc2ccccc2N1S(=O)(=O)c1nnc(NC(=O)c2cccc(F)c2)s1 (stereo unspecified) 41.4%

activation, inconclusive:
O=C(NCCc1csc(-c2cccc(F)c2)n1)c1ccccc1C(F)(F)F 51.3%, Cc1nc(-c2ccc(S(=O)(=O)N(C)Cc3ccccc3)cc2)co1 54.2%, CN(C)S(=O)(=O)N(CC(=O)NCCSCc1cccc(Cl)c1)c1ccccc1 58.1%, O=C(Nc1ccc(Br)cc1)c1ccc(Cl)c(S(=O)(=O)N2CCCCCC2)c1 51.6%, CC(=O)c1cccc(NC(=O)C2CCN(c3nnc(-n4cccc4)s3)CC2)c1 56.6%, COc1ccccc1OCCNCC(O)COc1cccc2[nH]c3ccccc3c12 (stereo unspecified) 199%, CCC(=O)Nc1ccc(-c2nc3ncccc3o2)cc1C 52%, Cc1cc(C)cc(-n2nnc(-c3nsc(NC(=O)c4ccccc4Cl)n3)c2C)c1 150%, S=P(N1CC1)(N1CC1)N1CC1 57.4%, COc1ccc2[nH]c(S(=O)Cc3ncc(C)c(OC)c3C)nc2n1 (stereo unspecified) 54.8%, COc1ccc(N2Cc3cccc(C(=O)Nc4ccc(C)c(C)c4)c3C2=O)cc1 52.6%, Cc1cc(C)cc(NC(=O)C(=O)NC(C)c2ccccc2)c1 (stereo unspecified) 56.6%, Cc1cccc(N2CCN(C(=O)CS(=O)(=O)c3cccc4nsnc34)CC2C)c1 (stereo unspecified) 150%, CNC(=O)c1ccccc1Sc1ccc2c(/C=C/c3ccccn3)n[nH]c2c1 57.7%, O[C@@H](c1cc(C(F)(F)F)nc2c(C(F)(F)F)cccc12)[C@H]1CCCCN1 121%, O=C(NC1(C(F)(F)F)NC(=O)N(CCc2ccccc2)C1=O)c1ccc(Cl)cc1 (stereo unspecified) 163%, COc1cc(C2Nc3c(C)cc(C)cc3-c3cc(C)nn32)cc(OC)c1O (stereo unspecified) 222%, Cc1ccc(S(=O)(=O)Nc2nc3n(n2)C(c2ccc(F)cc2)C=C(c2ccccc2)N3)cc1 (stereo unspecified) 207%, CCS(=O)(=O)c1ncc(Cl)c(C(=O)Nc2c(C(=O)Nc3cccc(C)c3)oc3ccccc23)n1 128%, Cc1ccc(S(=O)(=O)N(C)Cc2nc(-c3ccccc3)oc2C)cc1 56%, Cc1cccc(Cn2cc(C(=O)Nc3cc(F)ccc3F)ccc2=O)c1 54.7%, COc1ccc(C(=O)NNc2ncnc3c2cnn3-c2cccc(Cl)c2)cc1OC 577%
